# The list shows a part of the results.
# B1: SP16665A-bot-344-23-344 (Bacteroides ovatus) (protein)
# chain: SDNEFPDFDYQTVYFANQYGLRTIELGESEFVDNTLDNQHKMVIKAAWGGGYTNRNNVVINFKVDESLCDNLYFKDTDQPLVPMPASYYTLASDRIAIPKGQIMAGVEVQLTDDFFADEKSISENYVIPLLMTNVQGADSILQGKPVVENPVLTNAGDWSILPQNFVLYAVKYVNPWHGEYLRRGIDHATVAGTSKDIIRHEQFVENDEVVNISTKSMKDNLLTLKTKDESGKDISYTVRLSFAEDGSCTVHSGSQNVVVSGSGKFVSKGEKNSLGGKDRNAIYLDYTVNLTDNNIQLATKDTLVLRTRNVYGGKSLEVVRK
# Tests used:
# Experiment in all cases: glycan array binding signal (z-score within array); higher = stronger binding
# Settings in all cases: glycan notation: IUPAC condensed, linker removed
# [1] = target: Gal(b1-4)GlcNAc(b1-2)Man(a1-6)[Man(a1-3)]Man(b1-4)GlcNAc(b1-4)GlcNAc
# Outline: (§1)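 From the Consortium for Functional Glycomics database, 3228 arrays were curated, keeping only those whose protein sequence was available. Binding is given as a within-array Z-score averaged across arrays sharing a protein sequence and across linkers. Negative Z-scores can be read as non-binding.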
# [2] = target: Gal(b1-4)GlcNAc(b1-2)[Gal(b1-4)GlcNAc(b1-4)]Man(a1-3)[Gal(b1-4)GlcNAc(b1-2)Man(a1-6)]Man(b1-4)GlcNAc(b1-4)GlcNAc
# Outline: as §1
# [3] = target: Gal(b1-4)GlcNAc(b1-2)[Gal(b1-4)GlcNAc(b1-4)]Man(a1-3)[Gal(b1-4)GlcNAc(b1-2)[Gal(b1-4)GlcNAc(b1-6)]Man(a1-6)]Man(b1-4)GlcNAc(b1-4)GlcNAc
# Outline: as §1
# [4] = target: Gal(b1-4)GlcNAc(b1-2)[Gal(b1-4)GlcNAc(b1-4)]Man(a1-3)[GlcNAc(b1-4)][Gal(b1-4)GlcNAc(b1-2)Man(a1-6)]Man(b1-4)GlcNAc(b1-4)GlcNAc
# Outline: as §1
# [5] = target: Gal(b1-4)GlcNAc(b1-2)[Gal(b1-4)GlcNAc(b1-4)]Man(a1-3)[GlcNAc(b1-4)][Gal(b1-4)GlcNAc(b1-2)[Gal(b1-4)GlcNAc(b1-6)]Man(a1-6)]Man(b1-4)GlcNAc(b1-4)GlcNAc
# Outline: as §1
# [6] = target: Gal(b1-4)GlcNAc(b1-2)[Gal(b1-4)GlcNAc(b1-6)]Man(a1-6)[Gal(b1-4)GlcNAc(b1-2)Man(a1-3)]Man(b1-4)GlcNAc(b1-4)GlcNAc
# Outline: as §1
# [7] = target: Gal(b1-4)GlcNAc(b1-2)[Gal(b1-4)GlcNAc(b1-6)]Man(a1-6)[Gal(b1-4)GlcNAc(b1-2)Man(a1-3)]Man(b1-4)GlcNAc(b1-4)[Fuc(a1-6)]GlcNAc
# Outline: as §1
# [8] = target: Gal(b1-4)GlcNAc(b1-2)[Gal(b1-4)GlcNAc(b1-6)]Man(a1-6)[GlcNAc(b1-4)][Gal(b1-4)GlcNAc(b1-2)Man(a1-3)]Man(b1-4)GlcNAc(b1-4)GlcNAc
# Outline: as §1
# [9] = target: Gal(b1-4)GlcNAc(b1-2)[Gal(b1-4)GlcNAc(b1-6)]Man(a1-6)[GlcNAc(b1-4)][Gal(b1-4)GlcNAc(b1-2)[Gal(b1-4)GlcNAc(b1-4)]Man(a1-3)]Man(b1-4)GlcNAc(b1-4)[Fuc(a1-6)]GlcNAc
# Outline: as §1
# [10] = target: Gal(b1-4)GlcNAc(b1-3)Gal(b1-3)GalNAc
# Outline: as §1
# [11] = target: Gal(b1-4)GlcNAc(b1-3)Gal(b1-3)GlcNAc
# Outline: as §1
# [12] = target: Gal(b1-4)GlcNAc(b1-3)Gal(b1-4)Glc
# Outline: as §1
# [13] = target: Gal(b1-4)GlcNAc(b1-3)Gal(b1-4)GlcNAc
# Outline: as §1
# [14] = target: Gal(b1-4)GlcNAc(b1-3)Gal(b1-4)GlcNAc(b1-2)Man(a1-3)[Gal(b1-4)GlcNAc(b1-3)Gal(b1-4)GlcNAc(b1-2)Man(a1-6)]Man(b1-4)GlcNAc(b1-4)GlcNAc
# Outline: as §1
# [15] = target: Gal(b1-4)GlcNAc(b1-3)Gal(b1-4)GlcNAc(b1-2)Man(a1-3)[Gal(b1-4)GlcNAc(b1-3)Gal(b1-4)GlcNAc(b1-2)Man(a1-6)]Man(b1-4)GlcNAc(b1-4)[Fuc(a1-6)]GlcNAc
# Outline: as §1
# [16] = target: Gal(b1-4)GlcNAc(b1-3)Gal(b1-4)GlcNAc(b1-2)[Gal(b1-4)GlcNAc(b1-3)Gal(b1-4)GlcNAc(b1-6)]Man(a1-6)[Gal(b1-4)GlcNAc(b1-3)Gal(b1-4)GlcNAc(b1-2)Man(a1-3)]Man(b1-4)GlcNAc(b1-4)GlcNAc
# Outline: as §1
# [17] = target: Gal(b1-4)GlcNAc(b1-3)Gal(b1-4)GlcNAc(b1-2)[Gal(b1-4)GlcNAc(b1-3)Gal(b1-4)GlcNAc(b1-6)]Man(a1-6)[Gal(b1-4)GlcNAc(b1-3)Gal(b1-4)GlcNAc(b1-2)Man(a1-3)]Man(b1-4)GlcNAc(b1-4)[Fuc(a1-6)]GlcNAc
# Outline: as §1
# [18] = target: Gal(b1-4)GlcNAc(b1-3)Gal(b1-4)GlcNAc(b1-3)Gal(b1-4)GlcNAc
# Outline: as §1
# [19] = target: Gal(b1-4)GlcNAc(b1-3)Gal(b1-4)GlcNAc(b1-3)Gal(b1-4)GlcNAc(b1-2)Man(a1-3)[Gal(b1-4)GlcNAc(b1-3)Gal(b1-4)GlcNAc(b1-3)Gal(b1-4)GlcNAc(b1-2)Man(a1-6)]Man(b1-4)GlcNAc(b1-4)GlcNAc
# Outline: as §1
# [20] = target: Gal(b1-4)GlcNAc(b1-3)Gal(b1-4)GlcNAc(b1-3)Gal(b1-4)GlcNAc(b1-2)Man(a1-3)[Gal(b1-4)GlcNAc(b1-3)Gal(b1-4)GlcNAc(b1-3)Gal(b1-4)GlcNAc(b1-2)Man(a1-6)]Man(b1-4)GlcNAc(b1-4)[Fuc(a1-6)]GlcNAc
# Outline: as §1
# [21] = target: Gal(b1-4)GlcNAc(b1-3)Gal(b1-4)GlcNAc(b1-3)Gal(b1-4)GlcNAc(b1-2)[Gal(b1-4)GlcNAc(b1-3)Gal(b1-4)GlcNAc(b1-3)Gal(b1-4)GlcNAc(b1-6)]Man(a1-6)[Gal(b1-4)GlcNAc(b1-3)Gal(b1-4)GlcNAc(b1-3)Gal(b1-4)GlcNAc(b1-2)Man(a1-3)]Man(b1-4)GlcNAc(b1-4)[Fuc(a1-6)]GlcNAc
# Outline: as §1
# [22] = target: Gal(b1-4)GlcNAc(b1-3)Gal(b1-4)GlcNAc(b1-3)Gal(b1-4)GlcNAc(b1-3)Gal(b1-4)GlcNAc(b1-2)Man(a1-3)[Gal(b1-4)GlcNAc(b1-3)Gal(b1-4)GlcNAc(b1-3)Gal(b1-4)GlcNAc(b1-3)Gal(b1-4)GlcNAc(b1-2)Man(a1-6)]Man(b1-4)GlcNAc(b1-4)GlcNAc
# Outline: as §1
# [23] = target: Gal(b1-4)GlcNAc(b1-3)Gal(b1-4)GlcNAc(b1-3)Gal(b1-4)GlcNAc(b1-3)Gal(b1-4)GlcNAc(b1-2)Man(a1-3)[Gal(b1-4)GlcNAc(b1-3)Gal(b1-4)GlcNAc(b1-3)Gal(b1-4)GlcNAc(b1-3)Gal(b1-4)GlcNAc(b1-2)Man(a1-6)]Man(b1-4)GlcNAc(b1-4)[Fuc(a1-6)]GlcNAc
# Outline: as §1
# [24] = target: Gal(b1-4)GlcNAc(b1-3)Gal(b1-4)GlcNAc(b1-3)Gal(b1-4)GlcNAc(b1-3)Gal(b1-4)GlcNAc(b1-2)[Gal(b1-4)GlcNAc(b1-3)Gal(b1-4)GlcNAc(b1-3)Gal(b1-4)GlcNAc(b1-3)Gal(b1-4)GlcNAc(b1-6)]Man(a1-6)[Gal(b1-4)GlcNAc(b1-3)Gal(b1-4)GlcNAc(b1-3)Gal(b1-4)GlcNAc(b1-3)Gal(b1-4)GlcNAc(b1-2)Man(a1-3)]Man(b1-4)GlcNAc(b1-4)[Fuc(a1-6)]GlcNAc
# Outline: as §1
# [25] = target: Gal(b1-4)GlcNAc(b1-3)Gal(b1-4)GlcNAc(b1-3)Gal(b1-4)GlcNAc(b1-3)Gal(b1-4)GlcNAc(b1-3)Gal(b1-4)GlcNAc(b1-2)Man(a1-3)[Gal(b1-4)GlcNAc(b1-3)Gal(b1-4)GlcNAc(b1-3)Gal(b1-4)GlcNAc(b1-3)Gal(b1-4)GlcNAc(b1-3)Gal(b1-4)GlcNAc(b1-2)Man(a1-6)]Man(b1-4)GlcNAc(b1-4)GlcNAc
# Outline: as §1
# [26] = target: Gal(b1-4)GlcNAc(b1-3)Gal(b1-4)GlcNAc(b1-3)Gal(b1-4)GlcNAc(b1-3)Gal(b1-4)GlcNAc(b1-3)Gal(b1-4)GlcNAc(b1-2)Man(a1-3)[Gal(b1-4)GlcNAc(b1-3)Gal(b1-4)GlcNAc(b1-3)Gal(b1-4)GlcNAc(b1-3)Gal(b1-4)GlcNAc(b1-3)Gal(b1-4)GlcNAc(b1-2)Man(a1-6)]Man(b1-4)GlcNAc(b1-4)[Fuc(a1-6)]GlcNAc
# Outline: as §1
# [27] = target: Gal(b1-4)GlcNAc(b1-3)Gal(b1-4)GlcNAc(b1-3)Gal(b1-4)GlcNAc(b1-3)Gal(b1-4)GlcNAc(b1-3)Gal(b1-4)GlcNAc(b1-2)[Gal(b1-4)GlcNAc(b1-3)Gal(b1-4)GlcNAc(b1-3)Gal(b1-4)GlcNAc(b1-3)Gal(b1-4)GlcNAc(b1-3)Gal(b1-4)GlcNAc(b1-6)]Man(a1-6)[Gal(b1-4)GlcNAc(b1-3)Gal(b1-4)GlcNAc(b1-3)Gal(b1-4)GlcNAc(b1-3)Gal(b1-4)GlcNAc(b1-3)Gal(b1-4)GlcNAc(b1-2)Man(a1-3)]Man(b1-4)GlcNAc(b1-4)[Fuc(a1-6)]GlcNAc
# Outline: as §1
# [28] = target: Gal(b1-4)GlcNAc(b1-3)Gal(b1-4)GlcNAc(b1-3)Gal(b1-4)GlcNAc(b1-3)Gal(b1-4)GlcNAc(b1-3)Gal(b1-4)GlcNAc(b1-3)Gal(b1-4)GlcNAc(b1-2)Man(a1-3)[Gal(b1-4)GlcNAc(b1-3)Gal(b1-4)GlcNAc(b1-3)Gal(b1-4)GlcNAc(b1-3)Gal(b1-4)GlcNAc(b1-3)Gal(b1-4)GlcNAc(b1-3)Gal(b1-4)GlcNAc(b1-2)Man(a1-6)]Man(b1-4)GlcNAc(b1-4)GlcNAc
# Outline: as §1
# [29] = target: Gal(b1-4)GlcNAc(b1-3)Gal(b1-4)GlcNAc(b1-3)GalNAc
# Outline: as §1
# [30] = target: Gal(b1-4)GlcNAc(b1-3)Gal(b1-4)GlcNAc(b1-3)[Gal(b1-4)GlcNAc(b1-3)Gal(b1-4)GlcNAc(b1-6)]GalNAc
# Outline: as §1
# [31] = target: Gal(b1-4)GlcNAc(b1-3)Gal(b1-4)GlcNAc(b1-6)[Gal(b1-3)]GalNAc
# Outline: as §1
# [32] = target: Gal(b1-4)GlcNAc(b1-3)Gal(b1-4)[Fuc(a1-3)]GlcNAc(b1-3)Gal(b1-4)[Fuc(a1-3)]GlcNAc
# Outline: as §1
# [33] = target: Gal(b1-4)GlcNAc(b1-3)GalNAc
# Outline: as §1
# [34] = target: Gal(b1-4)GlcNAc(b1-3)[Fuc(a1-3)GlcNAc(b1-6)]Gal(b1-4)Glc
# Outline: as §1
# [35] = target: Gal(b1-4)GlcNAc(b1-3)[Gal(b1-4)GlcNAc(b1-6)]Gal(b1-4)GlcNAc
# Outline: as §1
# [36] = target: Gal(b1-4)GlcNAc(b1-3)[GlcNAc(b1-6)]Gal(b1-4)GlcNAc
# Outline: as §1
# [37] = target: Gal(b1-4)GlcNAc(b1-6)Gal(b1-4)GlcNAc
# Outline: as §1
binder,measurement,setting,value
B1,glycan array binding signal (z-score),[1],0.225
same,glycan array binding signal (z-score),[2],-0.051
same,glycan array binding signal (z-score),[3],-0.036
same,glycan array binding signal (z-score),[4],-0.429
same,glycan array binding signal (z-score),[5],-0.651
same,glycan array binding signal (z-score),[6],0.11
same,glycan array binding signal (z-score),[7],-0.254
same,glycan array binding signal (z-score),[8],-0.304
same,glycan array binding signal (z-score),[9],-0.757
same,glycan array binding signal (z-score),[10],-0.408
same,glycan array binding signal (z-score),[11],-0.173
same,glycan array binding signal (z-score),[12],0.226
same,glycan array binding signal (z-score),[13],-0.125
same,glycan array binding signal (z-score),[14],0.404
same,glycan array binding signal (z-score),[15],-0.278
same,glycan array binding signal (z-score),[16],0.676
same,glycan array binding signal (z-score),[17],0.103
same,glycan array binding signal (z-score),[18],0.071
same,glycan array binding signal (z-score),[19],0.702
same,glycan array binding signal (z-score),[20],2.77
same,glycan array binding signal (z-score),[21],-0.333
same,glycan array binding signal (z-score),[22],0.2
same,glycan array binding signal (z-score),[23],-0.114
same,glycan array binding signal (z-score),[24],0.091
same,glycan array binding signal (z-score),[25],-0.342
same,glycan array binding signal (z-score),[26],0.44
same,glycan array binding signal (z-score),[27],0.968
same,glycan array binding signal (z-score),[28],0.152
same,glycan array binding signal (z-score),[29],-0.439
same,glycan array binding signal (z-score),[30],0.116
same,glycan array binding signal (z-score),[31],-0.29
same,glycan array binding signal (z-score),[32],-0.128
same,glycan array binding signal (z-score),[33],0.135
same,glycan array binding signal (z-score),[34],-0.732
same,glycan array binding signal (z-score),[35],0.369
same,glycan array binding signal (z-score),[36],-0.377
same,glycan array binding signal (z-score),[37],-0.427

# From the supplement of paper PMC8728848
